According to the supplement of paper PMC9446081:
In all, about 39,000 compounds went through this assay and about 220 (0.56%) showed activity. This is one part of the list.

System: Escherichia coli K-12 BW25113
Assay: relative growth (OD600 normalised to plate interquartile mean) (fraction); higher = less growth inhibition, active = 0.2 or less
Conditions: 50 µM; LB; incubation time: overnight (16-24 h)
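Note: static incubation at 37 °C against the wild-type strain, values averaged over two biological replicates.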

| SMILES | relative growth |
| --- | --- |
| COc1ccc(NC(=O)Nc2ccc3c(c2)C(=O)N([C@H](C)CO)C[C@H](C)[C@H](CN(C)Cc2ccccc2)OCCCC[C@@H](C)O3)cc1 | inactive: 0.972 |
| O=c1ccc(-c2ccncc2)n[nH]1 | inactive: 0.957 |
| [N-]=[N+]=Nc1ccccc1C[C@@]1(C(=O)NCc2ccccc2)N=C(c2ccc(OCCCO)cc2)O[C@@H]1c1ccccc1 | inactive: 1.01 |
| CCCNC(=O)N1C[C@]2(CN(C2)S(=O)(=O)c2cccc(c2)OC)c2c(n(c3cc(ccc23)OC)C)[C@@H]1CO | inactive: 1.01 |
| COc1ccc(NC(=O)Nc2cccc3c2O[C@H](CN(C)C(=O)Nc2ccc(C(F)(F)F)cc2)[C@@H](C)CN([C@H](C)CO)C3=O)cc1 | inactive: 0.837 |
| C[C@H](CO)N1C[C@H](C)[C@@H](CN(C)Cc2ccc3c(c2)OCO3)Oc2ccc(NC(=O)CCN3CCOCC3)cc2C1=O | inactive: 0.99 |
| CCCNC(=O)N(C)C[C@H]1Oc2cc(C#Cc3ccccn3)ccc2S(=O)(=O)N([C@@H](C)CO)C[C@H]1C | inactive: 1.05 |
| N#CC(=Cc1ccc(O)c(O)c1)C(N)=O | inactive: 0.991 |
| COc1ccc(S(=O)(=O)N(C)C[C@@H]2OCCCC[C@H](C)Oc3ccc(NC(=O)c4ccccc4)cc3C(=O)N([C@H](C)CO)C[C@@H]2C)cc1 | inactive: 1.03 |
| C[C@H]1CN([C@@H](C)CO)C(=O)c2cccc(NC(=O)C3CC3)c2O[C@H]1CN(C)S(=O)(=O)c1ccc(Cl)cc1 | inactive: 0.985 |
| Cc1cn([C@H]2CC[C@@H](CO)O2)c(=O)[nH]c1=O | inactive: 0.531 |
| COc1ccc(NC(=O)N(C)C[C@@H]2Oc3c(NS(=O)(=O)c4cn(C)cn4)cccc3C(=O)N([C@@H](C)CO)C[C@H]2C)cc1 | inactive: 0.991 |
| C[C@@H]1CN([C@@H](C)CO)C(=O)Cc2cc(NC(=O)Cn3cnnn3)ccc2O[C@@H]1CN(C)S(=O)(=O)c1ccc(Cl)cc1 | inactive: 0.971 |
| COc1ccccc1OCCNCC(O)COc1cccc2[nH]c3ccccc3c12.O=P(O)(O)O (centres undefined) | inactive: 0.531 |
| C[C@H]1CN([C@@H](C)CO)C(=O)c2cccc(NC(=O)C3CC3)c2O[C@@H]1CN(C)S(=O)(=O)c1ccc(F)cc1 | inactive: 0.99 |
| C[C@@H]1CN([C@H](C)CO)C(=O)CCCn2cc(nn2)CO[C@H]1CN(C)C(=O)Nc1ccc(C(C)(C)C)cc1 | inactive: 0.984 |
| C[C@@H]1CN([C@@H](C)CO)C(=O)c2cccc(NC(=O)C3CC3)c2O[C@@H]1CN(C)S(=O)(=O)c1ccc(F)cc1 | inactive: 0.994 |
| C[C@@H]1CN([C@H](C)CO)S(=O)(=O)c2ccc(Br)cc2O[C@H]1CN(C)C(=O)Nc1ccccc1 | inactive: 0.992 |
| C[C@@H]1CCCCO[C@H](CN(C)Cc2ccc(C(F)(F)F)cc2)[C@H](C)CN([C@H](C)CO)C(=O)c2cc(NC(=O)Cc3ccccc3)ccc2O1 | inactive: 1.02 |
| COc1ccc(CCN(C)CCCOc2ccc(S(=O)(=O)c3[nH]c4ccccc4c3C(C)C)cc2)cc1OC | inactive: 1.03 |

| SMILES | relative growth |
| --- | --- |
| OC[C@H]1O[C@H](O)C[C@@H](O)[C@@H]1O | inactive: 0.927 |
| C[C@H](CO)N1C[C@H](C)[C@H](CN(C)S(=O)(=O)c2ccc(F)cc2)Oc2c(NC(=O)Nc3ccc(C(F)(F)F)cc3)cccc2C1=O | inactive: 0.975 |
| C[C@@H]1CN([C@H](C)CO)C(=O)c2cc(NS(C)(=O)=O)ccc2O[C@@H](C)CCCCO[C@@H]1CN(C)S(=O)(=O)c1ccc(F)cc1 | inactive: 0.989 |
| CCCN(CCC)CCc1cccc2c1CC(=O)N2.Cl | inactive: 1.19 |
| c1coc(CNC[C@H]2Cn3nncc3CO2)c1 | inactive: 0.963 |
| COc1cc(CO)cc(I)c1O[C@H]1C=C(C(=O)NCCO)C[C@@H](NC[C@@H]2CCCO2)[C@@H]1O | inactive: 0.982 |
| COc1cccc(S(=O)(=O)N(C)C[C@H]2Oc3ncc(C#CC(C)C)cc3C(=O)N([C@H](C)CO)C[C@H]2C)c1 | inactive: 0.997 |
| O=C(C[C@H]1C[C@@H]2c3cc(NS(=O)(=O)c4ccc(F)cc4)ccc3O[C@@H]2[C@H](CO)O1)NCc1cccnc1 | inactive: 1.03 |
| Cc1noc(C)c1NC(=O)Nc1ccc2c(c1)C(=O)N([C@H](C)CO)C[C@@H](C)[C@H](CN(C)Cc1ccc(C(F)(F)F)cc1)OCCCC[C@H](C)O2 | inactive: 0.917 |
| Cc1ccc(S(=O)(=O)Nc2cccc3c2O[C@@H](CN(C)Cc2ccc(C(F)(F)F)cc2)[C@@H](C)CN([C@H](C)CO)C3=O)cc1 | inactive: 1.04 |
| C[C@@H]1CN([C@H](C)CO)C(=O)c2cccc(NS(=O)(=O)c3ccc(F)cc3)c2O[C@@H]1CN(C)C(=O)Nc1cccc2ccccc12 | inactive: 0.986 |
| CO[C@@H]1CN(C)C(=O)c2ccc(NS(=O)(=O)CC(F)(F)F)cc2OC[C@@H](C)N(C(=O)NC(C)C)C[C@@H]1C | inactive: 0.978 |
| COc1ccc(CN(C)C[C@@H]2OCCCC[C@H](C)Oc3ccc(NC(=O)Nc4ccc(OC)cc4)cc3C(=O)N([C@@H](C)CO)C[C@@H]2C)cc1 | inactive: 0.971 |
| Cc1noc(C)c1NC(=O)N(C)C[C@@H]1OCCCC[C@H](C)Oc2ccc(NC(=O)C3CCCCC3)cc2C(=O)N([C@@H](C)CO)C[C@@H]1C | inactive: 1.04 |
| Cc1noc(C)c1S(=O)(=O)Nc1ccc2c(c1)C(=O)N([C@H](C)CO)C[C@H](C)[C@H](CN(C)Cc1ccncc1)O2 | inactive: 0.999 |
| C[C@@H]1CN([C@H](C)CO)C(=O)CCCn2nncc2CO[C@H]1CN(C)C(=O)Nc1ccc2c(c1)OCCO2 | inactive: 0.995 |
| C[C@H](O)C#Cc1ccc2c(c1)O[C@@H](CN(C)C(=O)c1ccccc1)[C@@H](C)CN([C@@H](C)CO)S2(=O)=O | inactive: 1.01 |
| CN(C)CC(=O)N1CC2(C1)[C@H](c1ccccc1)[C@H](CO)N2S(C)(=O)=O | inactive: 0.98 |
| COc1ccc(S(=O)(=O)Nc2ccc3c(c2)C(=O)N([C@@H](C)CO)C[C@H](C)[C@H](CN(C)Cc2ccc(Oc4ccccc4)cc2)O3)cc1 | inactive: 0.961 |
